# Assay results reported in PubChem BioAssay AID485294 (National Center for Advancing Translational Sciences (NCATS), 2010).
# Out of some 370,000 compounds screened, about 150 (0.041%) were called active. Inconclusive results, whose numbers are uncertain, are shown with a selection of clear calls. The call rests on the fitted dose curve; in most records, active means well fitted inhibition curve with a large enough effect; inconclusive means small, poorly fitted or top-dose-only effect; inactive means flat fitted curve, though single readings scatter. Potencies of inconclusive entries are left out as doubtful fits.
# Biological target: Beta-lactamase (Escherichia coli (strain K12)) (UniProt P00811)
# Test: qHTS Inhibitors of AmpC Beta-Lactamase (assay with detergent); further: nearly all actives have a fitted effect of over 25% in size;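 on activity change, negative = inhibition: 0% = no-compound wells and -100% = no-enzyme wells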
# Conditions: AmpC hydrolysis of nitrocefin, absorbance 480 nm, 0.01% Triton; activity change, negative = inhibition: at 114 µM (top of the series)
# Method in brief: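 AmpC (5.3 nM in the dispensed reagent) in 20 mM phosphate pH 7.0 with 0.01% (detergent screen) or 0.0001% Triton X-100 was preincubated with compounds for 15 min at room temperature. Nitrocefin was then added from an 800 uM solution, and hydrolysis was followed at 480 nm.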
# Potency means the concentration at half of the fitted maximal effect; tags describe the fitted curve by direction and shape.
# Sequence of UniProt P00811 (P00811 whole entry, looked up): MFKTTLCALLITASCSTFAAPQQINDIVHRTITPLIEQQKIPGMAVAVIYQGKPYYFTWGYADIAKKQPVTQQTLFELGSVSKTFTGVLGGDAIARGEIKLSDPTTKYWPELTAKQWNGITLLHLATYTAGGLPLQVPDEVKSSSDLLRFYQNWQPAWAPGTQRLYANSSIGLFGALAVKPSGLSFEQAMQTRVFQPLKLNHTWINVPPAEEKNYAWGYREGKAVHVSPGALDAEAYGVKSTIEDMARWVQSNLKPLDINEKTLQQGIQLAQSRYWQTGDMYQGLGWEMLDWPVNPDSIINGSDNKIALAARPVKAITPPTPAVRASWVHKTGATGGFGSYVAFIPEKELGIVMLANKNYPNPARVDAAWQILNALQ
Structure (SMILES),Potency,"activity change, negative = inhibition"
COC(=O)[C@@H]1C[C@H]1[C@@H](NC(=O)c1ccccc1)c1ccccc1,"inconclusive [inhibitor, full curve]",
CCCCCn1c(=O)c(C(=O)Nc2ccccc2N)c(O)c2ccccc21,,inactive: -13.2%
Cc1ccc(S(=O)(=O)Nc2ccc3cn[nH]c3c2)cc1,,inactive: -16.9%
COc1cccc(NC(=O)Nc2ccc3c(c2)CCC3)c1,,inactive: -6.27%
CC(C)c1ccc2c(c1)c(SC(C)(C)C)c(CC(C)(C)C(=O)O)n2Cc1ccc(Cl)cc1,"inconclusive [inhibitor, full curve, poor fit]",
CCC(C)NS(=O)(=O)c1ccc(NC(=O)CCC2CCCCC2)cc1 (centres undefined),"inconclusive [inhibitor, partial curve]",
CC(=O)Nc1c(C)nn(-c2ccccc2)c1N1CCC(C(=O)Nc2ccccc2C(F)(F)F)CC1,,inactive: 8.83%
CCOc1ccc2nc(N/C(N)=N/C(=S)Nc3cccc(OC)c3)nc(C)c2c1,"inconclusive [inhibitor, partial curve, poor fit]",
O=C(CN1c2ccc(Br)cc2-c2ccccc2S1(=O)=O)N1CCCCC1,,inactive: 18.4%
COc1ccc(N2C(=O)/C(=C/c3ccc(N(C)C)o3)C(=O)NC2=S)cc1,,inactive: -16.7%
CCN(CC)C(=O)c1c(NC(=O)c2ccccc2)sc(C)c1C,"inconclusive [inhibitor, full curve, poor fit]",
O=C(Cn1nc(CNc2ccc(Cl)cc2)[n+]2c1CCCCC2)c1ccccc1,,inactive: -8.87%
CN(C)/C=N/c1nc(Sc2ccc(C(F)(F)F)cc2[N+](=O)[O-])n[nH]1,,inactive: -1.86%
O=c1[nH]n2c(=O)c3c([nH]c2c1N=Nc1cccc(C(F)(F)F)c1)CCCC3,"inconclusive [inhibitor, single point]",
CSCCC(NC(=O)COc1ccccc1)C(=O)N1CCCCCC1 (centres undefined),"inconclusive [inhibitor, full curve, poor fit]",
CCn1cc(C(=O)OCC(=O)Nc2cccc(S(=O)(=O)N3CCOCC3)c2)c(=O)c2ccc(C)nc21,"inconclusive [inhibitor, single point]",
Cc1ccccc1/C(N)=N/O,"inconclusive [inhibitor, full curve, poor fit]",
COc1ccc(C2OC(=O)CC2C(=O)N2CCN(c3cc(Cl)ccc3C)CC2)cc1OC (centres undefined),"inconclusive [inhibitor, partial curve]",
CC(C)(C)c1cc(Br)c(O)c(N=Nc2ccc(S(=O)(=O)N3CCOCC3)cc2)c1,"inconclusive [inhibitor, full curve]",
CC1(c2ccc(Cl)cc2Cl)NC(=O)N(CC(=O)Nc2cccnc2Cl)C1=O (centres undefined),"inconclusive [inhibitor, full curve, poor fit]",
COc1ccc(C(=O)N2c3ccccc3C=CC2C#N)cc1 (centres undefined),"inconclusive [inhibitor, full curve]",
COc1ccc(C(=O)NCCc2csc(-c3ccc(Cl)cc3)n2)c(OC)c1,"inconclusive [inhibitor, full curve, poor fit]",
FC(F)(F)c1cccc(-c2nnc(-c3ccccc3)c(N3CCOCC3)n2)c1,"inconclusive [inhibitor, partial curve, poor fit]",

Structure (SMILES),Potency,"activity change, negative = inhibition"
CCCCNC(=O)c1nn2c(C(F)(F)F)cc(-c3ccccc3)nc2c1Br,"inconclusive [inhibitor, partial curve, poor fit]",
CCCOc1ccc(/C=C2/C(=O)ON=C2C)cc1Cl,,inactive: -14.1%
O=C(COC(=O)/C=C/c1ccccc1)NCc1ccccc1Cl,"inconclusive [inhibitor, full curve]",
CCN(CC)CC(O)c1ccc(C2CCCC2)cc1 (centres undefined),"inconclusive [inhibitor, full curve]",
CCOc1cc(/C=N/NC(=O)COc2ccccc2C)ccc1OC(=O)c1cccs1,"inconclusive [inhibitor, full curve, poor fit]",
O=C(CC(c1ccccc1)c1ccco1)Nc1nccs1 (centres undefined),"inconclusive [inhibitor, full curve]",
Cc1cc(CN(C)C(=O)c2ccc3nc(Cc4ccccc4F)oc3c2)n[nH]1,"inconclusive [inhibitor, single point]",
COc1cccc(NC(=O)N2CCN(c3cccc(C)c3C)CC2)c1,"inconclusive [inhibitor, full curve]",
Cc1cc(OC(=O)c2cc(Br)ccc2Cl)c([N+](=O)[O-])c(=O)[nH]1,"inconclusive [inhibitor, partial curve, poor fit]",
COc1ccccc1N=Cc1nc(-c2ccccc2)oc1OC(C)=O,,inactive: 2.31%
COc1ccc(C(C)=O)cc1COC(=O)CNC(=O)c1cc(C)cc(C)c1,,inactive: -10.5%
O=C(NNC(=S)Nc1cccc(Cl)c1)c1ccccc1OC(F)F,"inconclusive [inhibitor, partial curve]",
COc1ccccc1CCNC(=O)C(=O)NCC1OCCN1S(=O)(=O)c1ccc(OC)c(OC)c1 (centres undefined),,inactive: -14.7%
CCOC(=O)C1=C(SCC)c2cc3c(n2C1=O)CCCC3,"inconclusive [inhibitor, single point]",
CCCCN(C)C(=O)CSc1nc(NCc2ccc(OC)cc2)c2ccccc2n1,"inconclusive [inhibitor, full curve, poor fit]",
Cc1cccc(C)c1NC(=O)CCCSc1nnc(-c2ccc(Cl)cc2)n1-c1ccccc1,"inconclusive [inhibitor, partial curve]",
CN(C)/C=C/C(=O)c1cccc(Cl)c1,,inactive: -2.13%
CCCCCNC(=O)Cc1cc(=O)[nH]c(=O)[nH]1,"inconclusive [inhibitor, full curve, poor fit]",
CCOc1ccc(-c2cc(C(=O)N3CCN(c4ccccn4)CC3)c3ccccc3n2)cc1,"inconclusive [inhibitor, full curve]",
O=S(=O)(c1cccc(-c2nn3c(-c4ccncc4)nnc3s2)c1)N1CCOCC1,,inactive: -4.69%
CCc1c(C(=O)Nc2cc(C)cc(C)c2)[nH]c(C)c1C(C)=O,"inconclusive [inhibitor, full curve, poor fit]",
Cc1nnc(SCC(=O)Nc2ccc3c4c(cccc24)CC3)n1C,"inconclusive [inhibitor, full curve, poor fit]",
COc1ccc(NC(=O)c2ccc(Cc3ccc(C)cc3)o2)cc1,,inactive: -14.3%

Structure (SMILES),Potency,"activity change, negative = inhibition"
COc1ccc(CCNC(=O)CN(c2ccccc2)S(=O)(=O)N(C)C)cc1,,inactive: 23.6%
Cc1ccc2nc(-c3ccc(C)s3)c(Nc3ccc4c(c3)OCCO4)n2c1,,inactive: 0.999%
COc1ccc(-c2cc(C3CCN(c4cc(Cl)nc(N)n4)CC3)[nH]n2)cc1,"inconclusive [inhibitor, full curve, poor fit]",
O=C(c1ccco1)c1coc2c1cc(O)c1ccccc12,,inactive: -1.77%
Cc1cnc(NC(=O)CSc2ncc(-c3ccccc3)n2Cc2ccco2)s1,"inconclusive [inhibitor, full curve, poor fit]",
COc1ccccc1C(=O)Nc1ccc(-c2cc(C(F)(F)F)nn2-c2ccccc2)cc1,,inactive: -3.83%
CC(C)CCNS(=O)(=O)c1cc2c3c(c1)CCN3C(=O)CC2,"inconclusive [inhibitor, partial curve]",
CCN(CC(=O)Nc1ccc(C)c(S(=O)(=O)N2CCOCC2)c1)Cc1ccccc1,"inconclusive [inhibitor, single point]",
O=[N+]([O-])c1cc(-c2ccc(/C=N\n3cnnc3)o2)cc([N+](=O)[O-])c1,,inactive: 1.22%
Clc1ccccc1COc1ccccc1-c1nnco1,"inconclusive [inhibitor, full curve, poor fit]",
COc1cc(OC)cc(C(=O)Nc2nc3ccc(S(C)(=O)=O)cc3s2)c1,,inactive: 0.466%
CCCCNC(=S)N/N=C/c1cc(C)ccc1C,,inactive: -9.7%
COc1ccc(-n2nc(C(=O)NCC(=O)NC3CCCC(C)C3C)c3ccccc3c2=O)c(OC)c1 (centres undefined),"inconclusive [inhibitor, full curve]",
COc1ccc(Cl)cc1NC(=O)NC1CCCCC1,"inconclusive [inhibitor, partial curve]",
CCOC(=O)c1ccc(NC(=O)Cn2cccc2)cc1,"inconclusive [inhibitor, partial curve, poor fit]",
Cc1ccc(NC(=O)Cn2c(=O)n(CCC(C)C)c(=O)c3cccnc32)cc1C,,inactive: 20.4%
COc1ccc(C2N3CC(C)(C)CN23)cc1 (centres undefined),"inconclusive [inhibitor, full curve, poor fit]",
O=C(Nc1cc(C(F)(F)F)ccc1N1CCOCC1)C1Cc2ccccc2CN1C(=O)c1ccco1 (centres undefined),"inconclusive [inhibitor, partial curve, poor fit]",
O=C(N/N=C/c1nn(-c2ccccc2)cc1-c1ccc(Cl)cc1)c1ccncc1,"inconclusive [inhibitor, single point]",
COc1ccc(Oc2cccc(Cl)c2CNC(=O)CC(C)(C)CC(=O)O)cc1,"inconclusive [inhibitor, full curve, poor fit]",
COc1ccc(COC(=O)C2=C(C)NC(=O)NC2c2cccc(OC)c2OC)cc1 (centres undefined),"inconclusive [inhibitor, partial curve]",
COc1ccc(-c2sc3ccc(N4CCOCC4)cc3c2C#CC(C)(C)O)cc1,,inactive: 7.04%
CCC(CC)c1nnc(NC(=O)CCc2ccccc2)s1,"inconclusive [inhibitor, full curve, poor fit]",
